# Reference: PubChem BioAssay AID1508642 (National Center for Advancing Translational Sciences (NCATS), 2021)
# The whole screen tested about 43,000 compounds, of which about 200 (0.47%) were called active. About 12% were inconclusive and are not listed. The call rests on the fitted dose curve; in most records, active means well fitted cell-killing curve with a large enough effect; inconclusive means small, poorly fitted or top-dose-only effect, or effect the other way; inactive means flat fitted curve, though single readings scatter. This is one part of the list.
# Test: Cell viability qHTS assay in S16 Pmp22-F2sN cells; further: nearly all actives have a fitted effect of over 65% in size
# Conditions: S16 Pmp22-F2sN Schwann cells (luciferase reporters placed in the Pmp22 gene) viability, CellTiter-Glo, 24 h; series mostly up to 57.5 µM; activity change, negative = cytotoxicity: at the top concentration
# Summary of the method: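 CellTiter-Glo counter-screen, qHTS, 1536-well. Cells: S16(c9) Pmp22-F2sN, 500-1,000/well in DMEM + 10% FBS. Cpd 23 nL pin transfer, 24 h, 37C/5% CO2. Read: luminescence, CCD imager.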
# On the % scale 0 is the no-effect control and ±100 the full control effect.
row,Structure (SMILES),"activity change, negative = cytotoxicity"
1,CCOc1ccc(CNC(=O)CN2C(=O)CCn3nc(-c4cn(C)c5ccccc45)cc32)cc1OC,inactive: 16%
2,CCOc1ccc(NC(=O)CSc2cc(C)c3ccccc3n2)cc1,inactive: -3.69%
3,O=C(NCc1cccs1)c1nn(-c2ccccc2)nc1CO,inactive: 4.45%
4,Cc1c(C)n(Cc2ccc(F)cc2)c2ccc(C(=O)N3CCN(c4ccc(Cl)cc4)CC3)cc12,inactive: -10.9%
5,CC1(C(=O)NC2CCCCC2)Cc2ccccc2C(=O)N1Cc1ccc(Cl)cc1 (stereo unspecified),inactive: 10.8%
6,CC(=O)Nc1nonc1-c1nnc(SCc2ccc(F)cc2Cl)n1C,inactive: -2.94%
7,Cc1cc(C)cc(NC(=O)c2sc3nc(-c4ccccc4)cn3c2C)c1,inactive: -15.6%
8,Cc1ccc(NC(=O)CN2Cc3ccccc3C2=O)c(C)c1,inactive: 3.91%
9,CCOC(=O)c1cccc(NC(=O)CCS(=O)(=O)c2ccc(Br)s2)c1,inactive: -0.0744%
10,CC(C)(C)OC(=O)N1CCC(c2c(C(=O)Nc3cccc(C(F)(F)F)c3)cnn2-c2ccc(F)cc2F)CC1,inactive: -11.6%
11,Cn1cnc2c(=O)oc3ccc(S(=O)(=O)N4CCN(c5ccccc5)CC4)cc3c21,inactive: -21.2%
12,CCN(CC)S(=O)(=O)c1ccc2c(c1)c(=O)c(C(=O)N(C)Cc1ccccc1)cn2C,inactive: 10.1%
13,Cc1cc(C)cc(NC(=O)CSc2nnc(COc3ccccc3Cl)o2)c1,inactive: 13.5%
14,Cc1ccc(C)c(NC(=O)CCCN2C(=O)COc3ccc(C)cc32)c1,inactive: -12%
15,Cc1cc(OCC(=O)Nc2cnn(CCCC(=O)O)c2)ccc1Cl,inactive: 14.9%
16,O=C1CN(C(=O)c2ccc(Cl)cc2Cl)C(c2ccc(F)cc2)c2cc(F)ccc2N1 (stereo unspecified),inactive: 3.09%
17,CCOC(=O)C1CCN(C(=O)CSc2n[nH]c(-c3ccccc3Cl)n2)CC1,inactive: 12%
18,CN(C)c1ccc(C(CNC(=O)Cc2ccc(Cl)cc2)N2CCOCC2)cc1 (stereo unspecified),inactive: 12.4%
19,COc1ccc(C)cc1NC(=O)c1cc2c(s1)-c1ccccc1SC2,inactive: 0.656%
20,CCOC(=O)CC(NC(=O)Cn1nnc(-c2ccc(C(F)(F)F)cc2)n1)c1ccccc1Cl (stereo unspecified),inactive: 3.95%
21,CC(=O)Nc1cc(C(=O)NCc2ccc(F)cc2)ccc1Sc1ccc(C)cc1,inactive: -8.04%
22,CC1CCN(S(=O)(=O)c2ccc3ncn(CC(=O)Nc4ccccc4C(F)(F)F)c(=O)c3c2)CC1,inactive: 0.07%
23,Cc1nn(-c2ccccc2)c(-n2cccc2)c1C(=O)NCc1ccccc1Cl,inactive: -25.3%
24,CCOc1ccc2c(c1)[C@@H]1C=CC[C@@H]1[C@H](c1ccccc1Cl)N2,inactive: -18.6%

row,Structure (SMILES),"activity change, negative = cytotoxicity"
1,Cc1ccc(CCNC(=O)CN2C(=O)COc3ccc(S(=O)(=O)N4CCCCC4)cc32)cc1,inactive: 14.5%
2,Cc1ccc(Nc2nnc(-c3ccc(C)c(S(=O)(=O)N4CCCCC4)c3)c3ccccc23)cc1,inactive: -4.22%
3,COc1ccc(OC)c(NCc2cccn2-c2nnc(N3CCC(C)CC3)s2)c1,inactive: -19.5%
4,Cc1ccc(CNC(C)c2ccccc2)s1 (stereo unspecified),inactive: -2.37%
5,CN(C(=O)CSc1nc2ccccc2n1CC(=O)N(C)c1ccc(F)cc1)c1ccccc1,inactive: -2.38%
6,CCN(c1ccccc1)S(=O)(=O)c1ccc(F)c(C(=O)Nc2ccc(C)cc2)c1,inactive: -25.2%
7,Cc1nc(-c2cccc(F)c2)sc1CCNC(=O)c1ccc(F)c(F)c1,inactive: 4.33%
8,CCOc1ccc(Nc2oc(-c3ccc(COc4ccccc4C)o3)nc2C#N)cc1,inactive: -0.0845%
9,Cc1ccc(CNC(=O)CN2C(=O)C3(SCC(=O)N3c3cc(C)cc(C)c3)c3ccccc32)cc1 (stereo unspecified),inactive: -19.5%
10,O=C(CSc1nccn1Cc1ccc(F)cc1)Nc1ccc2c(c1)OCO2,inactive: -17.8%
11,COc1ccc(CNCCSc2nnnn2-c2ccccc2)c(OC)c1,inactive: -6.19%
12,Cn1c(=O)c2sccc2n2c(CCC(=O)N3CCN(c4cccc(Cl)c4)CC3)nnc12,inactive: 14.3%
13,O=C(C1CC1)N1CCc2cc(Br)cc(S(=O)(=O)N3CCN(c4ccccc4)CC3)c21,inactive: 22.4%
14,CCOc1ccc(/C=C(\C#N)C(=O)Nc2sc3c(c2C(=O)OC)C(C(=O)OC)CC3)cc1OC (stereo unspecified),inactive: 1.28%
15,Cc1c(CNCCc2ccc(S(N)(=O)=O)cc2)c(C(=O)O)c(C)n1Cc1ccc(Cl)cc1,inactive: -4.34%
16,CCCCC(=O)Nc1nnc(S(=O)(=O)N(CC)c2cc(C)cc(C)c2)s1,inactive: 19.3%
17,CCCCOC(=O)c1ccc(Nc2nc3ccccc3c3nnc(C)n23)cc1,inactive: 10.2%
18,COc1ccc(S(=O)(=O)NCc2ccc3c(c2)CCN3C(=O)c2ccc(C)cc2)cc1Cl,inactive: -26.5%
19,COc1ccc(CCn2c(=O)c3cccnc3n(CC(=O)Nc3cccc(C)c3)c2=O)cc1OC,inactive: 0.364%
20,CCOC(=O)C1CCN(C(=O)Cn2nc(C)n3c(cc4cc(C)ccc43)c2=O)CC1,inactive: -0.969%
21,Cc1cc2nc(-c3ccc(Br)cc3)cc(C(F)(F)F)n2n1,inactive: 0.845%
22,Cc1cc(C)cc(-n2ccnc2SCC(=O)Nc2ccc3c(c2)OCO3)c1,inactive: 2.36%
23,Cn1cc(-c2cc3n(n2)CCC(=O)N3CCCC(=O)Nc2ccc(F)cc2F)c2ccccc21,inactive: 2.74%
24,Cc1ccc2nc(NS(=O)(=O)c3ccc(Cl)cc3)c(Nc3ccc(C(=O)O)cc3)nc2c1,inactive: 1.3%

row,Structure (SMILES),"activity change, negative = cytotoxicity"
1,Cc1nnc2c(N3CCN(c4ccccc4)CC3)nc3ccc(C(=O)c4ccccc4)cc3n12,inactive: 0.967%
2,Cc1nc2c(C(=O)NCCc3ccc(Cl)cc3)c[nH]n2c(=O)c1Cc1ccccc1F,inactive: 17.7%
3,CCc1ccc(Sc2cc(C(=O)NCCCOC(C)C)c3ccccc3n2)cc1,inactive: -4.49%
4,Cc1cc(C)cc(OCC(=O)Nc2ccc(Cl)c(-c3nc4ncccc4o3)c2)c1,inactive: 7.4%
5,CC(=O)Nc1ccc(-n2c(CCC(=O)O)ccc2-c2ccc(C)cc2)cc1,inactive: 5.12%
6,CCOC(=O)c1oc2ccc(S(=O)(=O)n3nc(-c4cc(OC)cc(OC)c4)cc3N)cc2c1C,inactive: -19.8%
7,N#C/C(=C\c1ccccc1)C(=O)Nc1sc2c(c1C(N)=O)CCC2,inactive: 5.06%
8,Cn1cnc(S(=O)(=O)N2CCC(C(=O)N3CCN(c4ccc(Cl)cc4)CC3)CC2)c1,inactive: 3.8%
9,CCc1ccccc1NC(=O)C1COc2ccccc2C1 (stereo unspecified),inactive: -27.6%
10,COc1cccc(C2C(C(=O)Nc3ccccc3)=C(C)Nc3nnnn32)c1OC (stereo unspecified),inactive: 2.22%
11,Cc1ccc(NC(=O)CSc2nc3c(oc4ccccc43)c(=O)n2Cc2ccco2)cc1,inactive: 1.67%
12,CCCn1c(=O)c2sccc2n2c(CCCC(=O)N3CCN(c4cccc(C)c4C)CC3)nnc12,inactive: 1.09%
13,Cc1c(C(=O)N(Cc2ccc(Cl)cc2)CC2CCCO2)oc2ccc(F)cc12 (stereo unspecified),inactive: -4.07%
14,COc1ccccc1CNC(=O)CSc1ncc2c(n1)-c1cc(Cl)ccc1N(Cc1ccccc1)S2(=O)=O,inactive: -0.764%
15,CCOc1ccc(-c2nc(SCC(=O)NCCCOC)c(-c3ccccc3)[nH]2)cc1,inactive: -3.01%
16,CCn1c(CN2CCOCC2)nc2cc(NC(=O)c3ccc([N+](=O)[O-])cc3)ccc21,inactive: 1.07%
17,CCc1ccc(NC(=O)C2=CC(c3ccc4c(c3)OCO4)=NS(=O)(=O)N2C)cc1,inactive: 1.41%
18,Cc1cccc(-n2c(C)nc3cc(C(=O)NC4CCCCCC4)ccc32)c1,inactive: -5.66%
19,O=C(Cc1ccccc1F)N1CCC(c2nc3c(nnn3Cc3ccc(F)cc3)c(=O)[nH]2)CC1,inactive: 19.9%
20,O=C(CS(=O)(=O)c1cccc2nsnc12)Nc1cc(F)ccc1F,inactive: 10.1%
21,CSc1ccc(CC2C(=O)Nc3ccccc32)cc1 (stereo unspecified),inactive: -6.88%
22,CCOC(=O)C1CCN(c2c(C(=O)c3ccc(C)cc3)cnc3ccc(F)cc23)CC1,inactive: 15.1%
23,O=c1c2cc3c(nc2ncn1Cc1ccc(Cl)cc1)CCCC3,inactive: -6.31%
24,COc1ccc(NC(=O)CN2C(=O)c3ccccc3Sc3ccc(C(=O)N4CCOCC4)cc32)c(OC)c1,inactive: 0.823%

row,Structure (SMILES),"activity change, negative = cytotoxicity"
1,CC1CCC2(CC1)N=C(c1ccccc1)C(=O)N2CC(=O)Nc1ccc(F)c(Cl)c1 (stereo unspecified),inactive: -27.4%
2,CCOC(=O)c1cccc(NS(=O)(=O)c2cc3[nH]c(=O)c(=O)[nH]c3cc2C)c1,inactive: 4.42%
3,Cc1nc2ncnn2c(C)c1CCC(=O)N1CCN(c2cccc(Cl)c2)CC1,inactive: 7.84%
4,CCc1ccc(NC(=O)c2nnn(Cc3cccc(C(F)(F)F)c3)c2N)cc1,inactive: 5.88%
5,COc1cccc(CNC(=O)c2ccc3c(c2)nc2n3CCCCC2)c1OC,inactive: 3.43%
6,COc1cccc(CNC(=O)COCc2cc(-c3ccc4c(c3)OCO4)on2)c1,inactive: -21%
7,COc1cc(C(=O)OCc2cc(=O)n3nc(C(C)C)sc3n2)cc(OC)c1OC,inactive: -4.05%
8,COc1cc(NC(=O)c2cccc(F)c2)ccc1NC(=O)c1cc2ccccc2o1,inactive: -0.393%
9,CCOc1ccccc1NC(=O)CN1CCCN(Cc2cccc(Cl)c2)S1(=O)=O,inactive: -11.3%
10,CN(C)S(=O)(=O)c1ccc2c(c1)N(CC(=O)N1CCN(c3ccccc3F)CC1)CCS2,inactive: 4.9%
11,CCc1cccc(C)c1NC(=O)CN1C(=O)C2(SCC(=O)N2c2cc(C)cc(C)c2)c2ccccc21 (stereo unspecified),inactive: 1.3%
12,COc1cccc(C(=O)Nc2ccccc2-c2nc3ccccc3s2)c1,inactive: 0.0191%
13,Cc1cccc(CNC(=O)CN2C(=O)CCCc3ccccc32)c1,inactive: -3.34%
14,Cc1ccc(-c2nc(CS(=O)(=O)CC(=O)NCc3ccccc3Cl)c(C)o2)cc1,inactive: -11.7%
15,O=C(Cn1c(=O)n(Cc2ccc(C(=O)NCc3ccccc3Cl)cc2)c(=O)c2ccccc21)Nc1ccc(F)c(Cl)c1,inactive: 5.16%
16,COc1ccc(N2CC(NC(=O)COc3ccc4ccccc4c3)CC2=O)cc1 (stereo unspecified),inactive: 4.71%
17,COc1cc(OC)cc(C(=O)Nc2cccc(-c3cn4cccnc4n3)c2)c1,inactive: -23.4%
18,Cc1cccc(NC(=O)c2sc(-n3nc(C)c(CCC(C)C)c3C)nc2C)c1C,inactive: -0.0426%
19,O=S(=O)(c1ccc2[nH]c3c(c2c1)CCCCC3)N1CCN(c2cccc(Cl)c2)CC1,inactive: -13.2%
20,CC1=C(C(=O)Nc2cccc(C(F)(F)F)c2)C2(CCCCC2)OC1=O,inactive: -0.911%
21,COc1ccc(-c2nc3ccc(C)cn3c2Nc2ccc3c(c2)OCO3)cc1,inactive: 9.5%
22,O=C(NC1CCCC1)c1ccc2c(=O)n(Cc3ccccc3)c(SCc3ccccc3)nc2c1,inactive: -3.54%
23,Cc1ccc(-n2nc(C(=O)Nc3ccc(C)c(F)c3)c(=O)n(C)c2=O)cc1,inactive: -7.61%
24,Cc1ccc(CNC(=O)CCCCn2c(=O)c3ccccc3n(Cc3ccc(C)cc3)c2=O)cc1,inactive: 10.1%
